Results: the RNAGym collection of RNA variant scans (doi:10.1073/pnas.2313332121)
Variants at the floor of the assay are shown more often than the library holds them.

B1: TPR 5TU (parent)
chain: GGAUCUUCUCGAUCUAACAAAAAAGACAAAUCUGCCACAAAGCUUGAGAGCAUCUUCGGAUGCAGAGGCGGCAGCCUUCGGUGGCGCGAUAGCGCCAACGUUCUCAACUAUGACACGCAAAACGCGUGCUCCGUUGAAUGGAGUUUAUCAUG

Variants of: B1
Test: polymerase ribozyme fitness, log enrichment relative to wild type (log ratio); higher = more active; in vitro selection for triplet polymerase activity
How it was run: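 Mutant libraries for each subunit of a heterodimeric triplet polymerase ribozyme were made by PCR and then transcribed. Each library underwent one round of in vitro selection in triplicate: annealing with a biotinylated primer, the partner subunit and triplets, frozen incubation at −7 °C, gel excision of extended constructs, streptavidin-bead capture and RT-PCR. Input and output libraries were Illumina-sequenced, and only genotypes with ≥10 input reads and ≥1 read per output were kept. Fitness is the logarithm, base 2, of genotype enrichment over wild-type enrichment, computed from inverse-variance-weighted replicate averages.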

Polymerase ribozyme fitness (log ratio), ≤ -4.2:
GGAUCUUCUAGAUCUAACAAAAACGACAAAUCUGCCACAAAGCUUGAGAGCAUCUUCGGAUGCAGAGGCGACAGCCGUCGGUGGCGCGAUAGCACCAAAGUUCUCAACUAUGACACGCAAAACGUGUGCUCCGUUGAAUCGAGUUUAUCAUG [C10A A24C G71A U77G G94A C99A C125U G140C]
GGAUCUUCUAGAUCUAACAAAAAAGACAAAUCUGCCACAAAGCUUGCGAGCAUCUUCGGAUGCAGAGGCGGCAGCCUUCGGUAGCGCGAUAGCGCCAACGUUCUCAACUAUGACACGCAAAACGCGUGCUCCGUUGAAUGGAGUUUAUCAUG [C10A A47C G83A]
GGAUCUUCGCGAUCUAACAAAAAAGACAAAUCUGCCACAAAGCUUGAGAGCAUCUUCGGAUGCAGAGGCGGCAGCCUUCGGUCGCGCGAUAGCGCCAGCGUUCUCAACUAUGACACGCAAAACGCGUGCUCCGUUGAAUGGAGUUUAUCAUG [U9G G83C A98G]
GGAUCUUCUAGAUCUAACAAAAACGACACAUCUGCCACAAAGCUUGAGAGCAUCUUCGGAUGCAGAGGCGGCAGCCUUCGGUGGCGCGAUAGCGCCAACGUUCUCAACUAUGACACGCAAAACGCGUGCUCCGUUGAAUGGAGUUUAUCAUG [C10A A24C A29C]
GGAUCUUCUAGAUCUAACAAAUAAGACAAAUCUGCCACAAAGCUUGAGAGCAUCUUCGGAUGCAGAGGCGGCAGCCUUCGGUCGCGCGAUAGCGCCAACGUUCUCAACUAUGACACCCAAAACGCGUGCUCCGUUGAAUGGAGUUUAUUAUG [C10A A22U G83C G117C C149U]
GGAUCUUCUAGAUCUUACAACAAAGACAAAUCUGCCACAAAGCUUGAGAGCAUCUUCGGAUGCAGAGGCGGCAGCCUUCGGUGGCGCGAUUGCGCCAACGUUCUUAACUAUGACACGCAAAACGCGUGCUCCGUUGAAUGGAGUUUAUCAUG [C10A A16U A21C A91U C105U]
GGAUCUUCUAGAUCUAACAAAAAAGACAAAUUUGCCACGAAGCUUGAGAGCAUCUUCGGAUGCAGAGGCGGCAGCCUUCGCUGGCGCGUUAGCGCCAACGUUCUUAACUAUGACACGCAAAACGCGUGAUCCGUUGAAUGGAGUCUAUCAUG [C10A C32U A39G G81C A89U C105U C129A U145C]
GGAUCUUCGCGAUCGAACAAAAAAGACAAAUCUGCCACAAAGCUUGAGAGCAUCUUCGGAUACAGAGGCGGCAGCCUUCGGUGGCGCGAUAGCGCAAACGUUCUCAACUAUGACACGCAAAACGCGUGCUCCGUUGAAUGGAGUUUAUCAUG [U9G U15G G62A C96A]
GGAUCUUCGCGAUCUAACAAAAAAGACAAAUCUGCCACAAAGCUUGAGAGCAUCUUCAGAUGCAGAGGCGGCAGCCUUCGGUGGCGCGAUAGCGCCAACGUGCUCAACUAUGACACGCAAAACGCGUGCUCCGUUGAGUGGAGUUUAUCAUG [U9G G58A U102G A138G]
GGAUCUUCGCGAUCGAACAAAAAAGAGAAAACUGCCAAAAAGCUUGAGAGCAUCUUCGGAUGCAGCAGCGGCAGCCUUCGGUGGCGUGAUAGCGCCAAGGUUCUCAACUAUGACACGCAAAACGCGUGCUCCGUUGAAUGGACUUUAUCAUG [U9G U15G C27G U31A C38A A66C G67A C87U C99G G143C]
GGAUCUUCUAGAUCUAACAAAAAUGACAAAUCUGCCCCAAAGCUUGAGAGCAUCUUCGGGUGCAGAGGCGGCAGCCUUCGGUGAUGCGAUAGCGCCAACGUUCUCAACUAUGACACGCAAAACGCGUGCUCCGUUGAAUGGAGUUUAUCAUG [C10A A24U A37C A60G G84A C85U]
GGAUCUUCUAGAUUUAACAAAAAAGACAAGUCUGCCACAAGGCUUGAGAGCAUCUUCGACUGCAGAGGCGGCAGCCUUCGGUGGCGCGAUAGCGCCAAAGUUCUCAACUAUGACACGCAAAACGCGUGCUCCGUUGAAUGGAGUUUAUCAUG [C10A C14U A30G A41G G59A A60C C99A]
GGAUCUUCUAGAUCUAACAAAAAAGACAGAUCUGCCACUAAGCUUGAGAGCAUCUUCGGAUGCAAAGGCGGCAGCCUUCGGUGGCGGGAUAGCGCCAACGUUCUCAAGUAUGACACGCAAAACGCUUGCUCCGUUGAAUGGAGUUUAUCAUG [C10A A29G A39U G65A C87G C108G G126U]
GGAUCUUCUAGAUCUAACAAAAAAGACAAAUCUGCCACAAAGCUUGAGAGCAUCUUCGGAUGCAGAGGCGGCAGCCUUCGGUGGCGCGAUAGCGCCAACGUUCUCGACUAUGACACGCAAAACGCUUGCUCCGUUGAAUGGAGUUUAUCAUG [C10A A106G G126U]
GGAUCUUCUAGAUCUGACAAAAAAGACAAAUGUGCCACAAAGCUUGAGAACAUCUUCGGAUGCAGAGGCGGCAGCCUUCGGUGGCGCGAUAGCGCCAACGUUCUCAACUAUGACACGCAAAACGCGUGCUCCCUUGAAUGGAGUUUAUCAUG [C10A A16G C32G G50A G133C]
GGAUCUUCGCGAUCUAACAAAAAAGACAAAUCUGCCACAAAGCUUGAGAGCAUCUUCGGAUGCAGAGGCGGCAGCCUUCGGUGGCGCGAUAACGCCAACGUUCUCAACUAUGACAUGCAAAACGUGUGCUCCGCUGAAUGGAGUUUAUCAUG [U9G G92A C116U C125U U134C]
GGAUCUUCGCGAUCUAACAAAAAAGACAAAUCUGCCACAAAGCUUGAUAGCAUCUUCGGAUGCAGAGGCGGCAGCCUUCGGUGGGGCGAUAGCGCCAACGUUCUCAACUAUGACACGCAAAACGCGUGCUCCGUUGAAUGGAUUUUAUCAUG [U9G G48U C85G G143U]
GGAUCUUCUAGAUCUAACAUAAAAGACAAACCUGCCACAAAGUUUGAGAGCAUCUUCGGAUGCAGAGGCGGCAGCCUUCGGUGGCGCGGUAGCGCUAACGUUCUCAACUAUGACACGCAAAACGCGUGCUCCGUUCAAUGGAGUUUCUUAUG [C10A A20U U31C C43U A89G C96U G136C A147C C149U]
GGAUCUUCUAGAUCUAACAAAAAAGAAAAAUCUGCCACAAAGCUUGAGAGCAUCUUCGGAUGCACAGGCGGCAGCCUUCGGUGGCGCGAUAGCGCAAACGUUCUCAACUAUGACUCGCAAAACGCGUGCUCCGUUGAAUGGAGUUUAUCAUG [C10A C27A G65C C96A A115U]
GGAUCUUCGCGAUCUAACAAAAAAGACAAAUCUGCCACAAAGCUUGAAAGCAACUUCGGAUGCGGAGGCGGCAGCCGUCGGUGGCGUGAUAGCGCCAACGUUCUCAACUAUGACACGCAAAACGCGUGCUCCGUUGAGUGGAGUUUAUCAUG [U9G G48A U53A A64G U77G C87U A138G]
GGAUCUUCUAGAUCUAACAAAAAAGACAAAUCUGCCACAAGGCUUGAGAACAUUUUCGGAUGCAGAGGCGGCAGCCUUCGGUGGCGAGGUAGCGCAAACGUUCUCCACUAUGACACGCAAAACGCGUGCUCCGUUGAAUGGAGUUUAUCAUG [C10A A41G G50A C54U C87A A89G C96A A106C]
GGAUCUUCUAGAUCUAACAAGAAAGACAAAUCUGCCACAAAGCUUGAGAGCAUCUUCGGAUGCAGAGGCGGCAGCCUUCGGUGGCACGUUAGCGCCAACGUUCUCAACUAUGACACGCAAAACGCGUGCUCCGUUGAAUGGAGUUUAUCAUG [C10A A21G G86A A89U]
GGAUCUUCGCGAUCUAACAAAAAAGACAAAUCUGCCACAAAGCUUGAGAGCAUCUUCGGAUGCAGAGGCGGCAGCCUUCGGAGGCGCGAUAGCGCCAACGUUCUCAACUAUGACAGGCAGAACCCGUGCUCCGUUGAAUGGGGUUUAUCAUG [U9G U82A C116G A120G G124C A142G]
GGAUCUUCUAGAUCUAACAAAAAAGACAAAUCUGCCACAAAGCUUGAGUGCAUCUUGGGAUGCGGAGGCGGCAGCCUUCGGUGGCGCGAUAUCGCCAACGUUCUCAACUAUGACACGCAAAACGCGUGCUCCGUUGAAUGGAGUUUAUCAUG [C10A A49U C57G A64G G92U]
GGAUCUUCUAGAUCUAACAAAAAAGACAAAUCUGCCACUAAGCUUGAGAGCAUCUUCGGAUGCAGAGGCGGCAGCCUUCGGUGGCCCGAUAGCGCCAACGUUCUCAACGAUGACACGCAAAACGCGUGCCCCGUUGAAUGGAGUUUAUCAUG [C10A A39U G86C U109G U130C]
GGAUCUUCGCGAUCUAACAAAAAAGACAAAUCUGCCACAAAGCUUGAGACCAUCUUAGGAUGCAGAGGCGGCAGCCUUCGGUGGUGCACUAGCGCCAACGUUCUCAACUAUGACACGCAAAACCCGUGCUCCGUUGAAUGGAGUUUAUCAUG [U9G G50C C57A C85U G88A A89C G124C]
GGAUCUUCUAGAUCUAACAAUAAAGACAAAUCUGCCACAAAGCUUGAGAGCAUCUUCGCAUGCAGAGGCGGCAGCCUUCGGUGGCGAGAUAGCGCCAACGUUCUCAACUAUGACACGCAAAAAGCGUGCUCCGUUAAAUGGAGUUUAUCAUG [C10A A21U G59C C87A C123A G136A]
GGAUCUUCUAGAUCUAACAAAAAAGACAAAUGUGCCACAAAGCUUGAGAGCAUCUUCGGAUGCAGAGGCGGCAGCCAUCGGUGGCGGGAUAGCGCCAACGUUCUCAACUAUGACAUGCAAAACGCGUGCUCCGUUGAAUGGAGUUUAUCAUG [C10A C32G U77A C87G C116U]
GGAUCUUCUAGUUCUAACAAAAAAGACAAAUUUGCCACAAAGCUUGAGAGCAUCUUCGGAUGCAGAGGCGGCAGCCUUUCGUGGAGCGAUAGCGCCAACGUUCUCAACUAUGACACGCAAAACGCGUGCUCCGUUGAAUGGAGUUUAUCAUG [C10A A12U C32U C79U G80C C85A]
GGAUCUUCUAGAUCUAACAAAAAAGACAAAUCUGCCACACAGCUUGAGCGCAACUUCGGAUGCAGAGGCGGCAGCCUUUGGUGGCGCGAUAGCGCCAACGUUCUCAACUAUGACACGCAAAACGCGUGCUCCGUUGAAUGUAGUUUAUCAUG [C10A A40C A49C U53A C79U G141U]
GGAUCUUCGCGAUCCAACAAAAAAGACAAAUCUGCCACAAAGCUUGAGAGCAUCUUCGGAUGCAGAGGCGGCAGCCUUCGGUGGCGGGAUAGCGCCAACGUUCUCAACUAUGGCACGCAAAACGCGUGCUCCGUUGAAUGGGGUUUAUCAUG [U9G U15C C87G A113G A142G]
GGAUCUUCUAGAUCUAACAAAAAAGACAAAUCUGCCACAAAGCUUGGGAGCCUCUUCGGAUGCAGAGCCGGCAGCCUUCGGUGGAGCGAUAGCGCCAACGUUCUCAACUAUGACACGCAAAACGCGUGCUCCGUUGAAUGGAGUUUAUCAUG [C10A A47G A52C G68C C85A]
GGAUCUUCUAGAUCUAACAAAAAAGACAAAUCUGCCACAGACCUUGAGAGCAUAUUCGGAUGCAGAGGCGGCAGCCUUCGGGGACGCGAUAGCGCCACCGUUCUCAACUAUGACACGCAAAACGCGUGCUCCGUUGAAUGGAGUUUAUCAUG [C10A A40G G42C C54A U82G G84A A98C]
GGAUCUUCUAGAUUUAACAAAAAAGACAAAUCUGCCACAAAGCUUGAGAGCAUCUUAGGAUGCAGAGGCGGCAGCCUUCGGUCGCGCGAUAGCGCCAACGUUCUCAACUAUGACACGCAAAACGCGUGCUCCGUUGAAUGGAGUUUAUCAUG [C10A C14U C57A G83C]
GGAUCUUCGCGAUCUAACAAAAAAGACAAAUCUGCCACAAAGCUUGAGAGCAUCUUCGCAUGCAGAGGCGGUAGCCUUCGGUGGCGUGAUCGCGCCAACGUUCUCAACUAUGACACGCAAAACGCGUGCUCCGUUGAAUGGAGUUUAUCAUG [U9G G59C C72U C87U A91C]

Polymerase ribozyme fitness (log ratio), -3.95:
GGAUCUUCGCGAUCUAACAAAAAAGACAAAUCUGCCACAAAGCUUGAGAGCAUCUUCGGAUGCAGAGGCGGCAGCCUUCGGUGGCGCGAUAGCGCCAACGUUCUCAACUAUGACACGCAAAACGCGUGCUCCGUUGAAUGGAGUCUAUCAUG [U9G U145C]

Polymerase ribozyme fitness (log ratio), -4.07:
GGAUCUUCGCGAUCUAACAAAAAAGACAAAUCUGCCACAAAGCUUGAGAGCAUCUACGGAUGCAGAGGCGGCAGCCUUCGGUGGCGCGAUAGCGCCAACGUUCUCAACUAUGACACGCAAAACGCGUGCUCCGUUGAAUGGAGUUUAUCAUG [U9G U56A]

Polymerase ribozyme fitness (log ratio), -4.19:
GGAUCUUCUAGAUCUUACAAAAAAGACAAAUCAGCCACAAAGCUUGAGAGCAUCUUCGGAUGCAGAGGCGGCAGCCUUCGGUGGCGCGAUAGCGCCAACGUUCUCAACUAUGACACGCAAUACGCGUGCUCCGUUGAAUGCAGUUUAUCAUG [C10A A16U U33A A121U G141C]
